# The campaign covered roughly 310,000 compounds. About 14,000 (4.5%) showed an effect of 50% or more. Effects have a minus sign here. This is one part of the list.
# Target: human ether-à-go-go-related gene (hERG) potassium channel (human, UniProt Q12809)
# Test: primary screen, population patch clamp on CHO cells stably expressing hERG
# 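Note: peak tail current of the secondary pulse compared with the same well before compound.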
# human ether-à-go-go-related gene (hERG) potassium channel, sequence (Q12809 whole entry, looked up): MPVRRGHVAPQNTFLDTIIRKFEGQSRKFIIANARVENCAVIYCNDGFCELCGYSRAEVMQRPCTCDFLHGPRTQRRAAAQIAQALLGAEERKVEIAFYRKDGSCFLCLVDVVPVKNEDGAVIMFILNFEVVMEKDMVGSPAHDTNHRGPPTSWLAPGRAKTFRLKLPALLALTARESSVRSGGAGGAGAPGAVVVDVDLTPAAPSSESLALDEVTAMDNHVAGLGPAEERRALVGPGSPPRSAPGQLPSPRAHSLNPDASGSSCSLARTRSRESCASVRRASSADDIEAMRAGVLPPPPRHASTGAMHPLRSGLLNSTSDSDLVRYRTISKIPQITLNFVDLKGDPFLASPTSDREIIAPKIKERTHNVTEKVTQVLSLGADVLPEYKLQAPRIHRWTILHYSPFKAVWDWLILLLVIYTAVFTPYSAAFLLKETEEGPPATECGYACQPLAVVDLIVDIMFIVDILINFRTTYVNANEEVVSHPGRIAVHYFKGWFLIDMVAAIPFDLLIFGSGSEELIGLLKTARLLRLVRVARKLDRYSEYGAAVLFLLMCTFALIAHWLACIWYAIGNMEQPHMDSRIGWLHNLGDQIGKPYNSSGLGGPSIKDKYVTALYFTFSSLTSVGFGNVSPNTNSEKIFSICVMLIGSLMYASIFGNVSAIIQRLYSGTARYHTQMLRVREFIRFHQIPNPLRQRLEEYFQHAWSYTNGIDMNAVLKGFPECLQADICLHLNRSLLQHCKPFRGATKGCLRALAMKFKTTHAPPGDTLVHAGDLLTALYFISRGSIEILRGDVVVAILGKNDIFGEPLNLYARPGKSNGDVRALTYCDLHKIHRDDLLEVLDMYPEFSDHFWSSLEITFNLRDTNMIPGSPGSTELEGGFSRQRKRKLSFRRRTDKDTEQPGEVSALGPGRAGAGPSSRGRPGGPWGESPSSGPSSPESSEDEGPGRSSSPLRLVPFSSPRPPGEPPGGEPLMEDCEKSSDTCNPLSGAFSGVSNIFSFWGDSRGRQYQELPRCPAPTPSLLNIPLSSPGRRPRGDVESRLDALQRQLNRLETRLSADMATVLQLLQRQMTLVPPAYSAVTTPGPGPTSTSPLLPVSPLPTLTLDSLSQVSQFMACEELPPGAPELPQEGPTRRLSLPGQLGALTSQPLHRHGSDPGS
row,Compound,"hERG current change (%, negative = inhibition) at 10uM [%]"
1,C=CCn1c(=O)/c(=C/c2ccc(Cl)cc2)s/c1=C(/C#N)c1nnc2n1CCCCC2,-43
2,COc1ccc(CC(=O)NC2CCCc3ccccc32)cc1 (centres unmarked),11.5
3,COC(=O)C1(CCSC)NC(c2ccc(O)cc2)C2C(=O)N(c3ccc(F)cc3)C(=O)C21 (centres unmarked),-12.2
4,COc1ccc(/C(O)=C2/C(=O)C(=O)N(CCCN3CCOCC3)C2c2ccc(OC)cc2)cc1 (centres unmarked),22.8
5,CCOC(=O)C1=C(CN2CCOCC2)NC(=O)NC1c1cc(C)ccc1C (centres unmarked),-9.37
6,CCC(=O)c1ccc(OCC(=O)N2CCN(S(=O)(=O)c3ccc(Cl)s3)CC2)cc1,-4.53
7,O=C(/C=C/c1cc(Br)ccc1O)c1ccco1,-17.1
8,COC(=O)c1oc2ccccc2c1NC(=O)c1ccccc1O,21
9,O=C(NCc1ccc(Cl)cc1)C(=O)c1cn(CC(=O)N2CCOCC2)c2ccccc12,-2.31
10,Cc1ccc(S(=O)(=O)N(CCCO)Cc2cc3c(C)ccc(C)c3[nH]c2=O)cc1,-45.9
11,CC1(C)CC2(CC(c3ccccc3F)c3cc(Cl)c(O)cc3O2)NC(=S)N1 (centres unmarked),28.9
12,Cc1ccc(-c2nc(CS(=O)CC(=O)N3CCN(c4ccccc4)CC3)c(C)o2)cc1 (centres unmarked),-31.3
13,Cn1cc(Cl)c(C(=O)NNC(=S)NC2CCCCC2)n1,15.4
14,CCNc1nc(NCC)n2c(SCC(=O)Nc3ccc(C)c(C)c3)nnc2n1,-8.06
15,Clc1ccc(SCc2cn3ccccc3n2)cc1,-18.1
16,N/C(=N\OC(=O)c1cccnc1)c1ccccc1Cl,22
17,Cc1c(C(=O)Nc2nnc(C3CC3)s2)oc2c(Cl)cccc12,8.02
18,O=C(c1ccco1)N1CCN(C(=O)N2CCOCC2)CC1,-6.66
19,O=C(NC(=S)Nc1ccccc1N1CCOCC1)c1ccc(-c2ccccc2F)o1,15.4
20,CC(C)(O)C#Cc1ccc(CN2CCN(Cc3ccccc3)C(CCO)C2)cc1 (centres unmarked),12
21,Cc1ccccc1NC(=O)CSc1ccc(-c2cccnc2)nn1,-29
22,COc1ccc(NC(=O)C(NC(C)=O)C(=O)NCc2ccccc2)cc1 (centres unmarked),15
23,COc1ccc(C(=O)Nc2ccc(-c3n[nH]c(=S)o3)cc2)cc1OC,24

row,Compound,"hERG current change (%, negative = inhibition) at 10uM [%]"
1,CCc1nnc(NC(=O)CCc2nc(C3=CCN(C)CC3)no2)s1,14.1
2,CCOC(=O)CNc1nc2ccccc2n2c(C)nnc12,5.22
3,Cc1cccc(N2CCN(C(=S)NCCc3ccccc3)CC2)c1C,-5.03
4,O=C(N/N=C/c1cccc(Oc2ccccc2)c1)c1cc[n+]([O-])cc1,-5.76
5,CC(C(=O)Nc1nccs1)N1C(=O)c2ccccc2S1(=O)=O (centres unmarked),11.5
6,COc1ccc(N(C)S(=O)(=O)c2c(C)[nH]c(=O)[nH]c2=O)cc1,-2.37
7,CCOC(=O)/C(=N\Nc1ccccc1[N+](=O)[O-])c1csc(Nc2ccccc2)n1,17.2
8,COc1ccc(Cc2c(O)nc(SCC(=O)NC(C)(C)C)[nH]c2=O)cc1,13.7
9,COc1cc(NC(=S)NCCN2CCOCC2)cc(OC)c1,8.78
10,CCOC(=O)c1sc2ncn(C(CC)C(=O)OC)c(=O)c2c1C (centres unmarked),9.35
11,COc1ccc(S(=O)(=O)N2CCCN(CC(=O)Nc3ccc(OC)c(Cl)c3)CC2)cc1,-33.3
12,C=CCOc1ccc(CNc2ccc3[nH]c(=O)[nH]c3c2)cc1OCC,6.6
13,O=C(NCc1ccccc1)C(c1ccccc1)N(C(=O)c1csnn1)C1CCCC1 (centres unmarked),-8.12
14,Cc1cc(=O)oc2cc(OCC(=O)OCC(=O)Nc3ccc4ccccc4c3)ccc12,14.2
15,Cc1ccc2c(c1)C=CC(C)(C)S2(=O)=O,17.3
16,Cc1noc(C)c1C(=O)Nc1cccc(S(=O)(=O)N2CCOCC2)c1,-5.31
17,COc1ccc(CC(=O)NNC(=O)c2nn(Cc3ccccc3)c(=O)c3ccccc23)cc1OC,-9.27
18,Cc1nn(C)c(C(=O)N/N=C/c2ccccc2)c1[N+](=O)[O-],6.25
19,CN=C1S/C(=C/c2cn(CC(=O)OC)c3ccccc23)C(=O)N1C,11.1
20,O=C(O)CCCn1cc(NC(=O)COc2ccc(F)cc2)cn1,16.5
21,C=C(C)COc1ccc(-c2nc(N)ncc2Oc2ccccc2OC)c(O)c1,-0.445
22,CCOC(=O)N1CCN(C(=O)CSc2nnc(-c3cccs3)o2)CC1,-12.4
23,CC(C)(C)c1ccc(-c2n[nH]c(=S)n2/N=C/c2ccncc2)cc1,13

row,Compound,"hERG current change (%, negative = inhibition) at 10uM [%]"
1,CN1CCN(C(=S)NC(CC(=O)c2ccccc2)c2ccccc2)CC1 (centres unmarked),-5.32
2,Clc1cccc(Cl)c1CN1CCN(c2ncccn2)CC1,17.6
3,CCOc1ccccc1C(=O)Nc1nnc(COC)s1,3.41
4,COc1cc(C(=O)O/N=C(\N)c2ccncc2)cc(OC)c1OC,-13.3
5,COC(=O)C1CCCCN1C(=O)c1cccc(OC2CCN(C(=O)C3CC3)CC2)c1 (centres unmarked),3.79
6,CCCCc1ccc(-c2csc(/C(C#N)=C/c3ccco3)n2)cc1,-9.2
7,CC(C)N1C(=O)CCC1C(=O)N1CCN(c2ccc(F)cc2)CC1 (centres unmarked),-1.84
8,O=C(CNC(=O)c1cccs1)OCc1ccc(Br)cc1,-6.43
9,CNC(=O)C1CC(=O)N(Cc2ccc(OC)c(OC)c2)C(=Nc2ccc(OC)cc2)S1 (centres unmarked),-6.01
10,Cc1cc(C(=O)CN2C(=O)NC(c3ccccc3)(c3ccccc3)C2=O)c(C)n1Cc1ccccc1,1.33
11,O=C(C1Cc2ccccc2CN1S(=O)(=O)c1cccs1)N1CCCCCC1 (centres unmarked),-12.5
12,N#Cc1cc2c(nc1SCC(=O)N1CCCCC1)CCCC2,-2.52
13,O=C1NC(=O)N(Cc2ccco2)C(=O)/C1=C\c1cccn1CCOc1ccc(Cl)cc1,11.1
14,O=C(COC(=O)COc1ccccc1[N+](=O)[O-])Nc1cccc(Br)c1,9.05
15,O=C(CCC(=O)c1cccs1)c1cccs1,11.8
16,CCC(C)NC(=O)CSC1=Nc2ccccc2C2=NC(CCC(=O)NCc3ccco3)C(=O)N12 (centres unmarked),-1.01
17,COc1ccc(CN(C(=O)c2cc(=O)c3ccccc3o2)C2CCS(=O)(=O)C2)cc1OC (centres unmarked),3.29
18,CC(=O)c1sc(NC(=O)c2cccc(N3C(=O)CCC3=O)c2)nc1-c1ccccc1,20
19,Cc1[nH]cnc1CSCc1ccc(Cl)cc1.Cl,-29
20,Cc1ccc(OCCCCN2CCc3ccccc3C2)cc1.Cl,-34.9
21,Cc1ccc2c(CC(=O)NCC(=O)Nc3c(C)cccc3C)coc2c1,1.13
22,C=CCn1c(SCC(=O)Nc2cc(Cl)ccc2C(=O)O)nc2sc(C)c(C)c2c1=O,6.55
23,NC(=O)c1oc2ccccc2c1NC(=O)C1CCCCC1,0.903

row,Compound,"hERG current change (%, negative = inhibition) at 10uM [%]"
1,CC(C)CCNC(=O)c1onc(CSc2ccc(Cl)cc2)c1C(=O)NCCC(C)C,24.5
2,O=C(Cc1ccc(Cl)cc1Cl)NCc1cccnc1,3.57
3,CC1CCCN(C2=NC(=O)/C(=C/c3cn(-c4ccccc4)nc3-c3cccc(S(=O)(=O)N(C)C)c3)S2)C1 (centres unmarked),1.65
4,COc1ccc2cc(C(=O)N3CCCCCC3)sc(=O)c2c1OC,-1.59
5,Cc1ccc(-c2nc(N)nc(N)n2)c(C)c1,13.7
6,CCOc1cc(/C=C2\C(=O)NC(=O)N(CCc3ccc(F)cc3)C2=O)ccc1O,2.66
7,COc1ccc(/C=C2/CCc3ccccc3C2=O)cc1OC,-19.8
8,CCOc1ccc(Br)cc1CNCc1cccnc1,-10.2
9,C#CCCCCCCCCC(=O)NCCCC,-2.76
10,Cc1nc2oc(C(=O)c3ccccc3)c(N)c2c2c1COC(C)(C)C2,2.84
11,COC(=O)Cc1c[nH]c2ccc(OCC(O)CNC(C)C)cc12.O=C(O)c1ccccc1 (centres unmarked),6.06
12,Cc1nn2cnc3sc4c(c3c2nc1=O)CCCC4,-3.17
13,CCCc1cc(NCCCN(C)C)n2c(nc3ccccc32)c1C#N,0.382
14,Cn1nc(C(F)(F)F)c(/C=N/OC(=O)c2ccccc2)c1Sc1ccc(Cl)cc1,15.2
15,CN(C)C(=O)CSc1n[nH]c(=O)[nH]c1=O,-8.5
16,Cc1sc2ncnc(N3CCC(C(=O)Nc4nc(-c5ccc(F)cc5)cs4)CC3)c2c1C,9.08
17,CCCCN(C(=O)NC(=O)Nc1ccc(C)cn1)S(C)(=O)=O,11
18,Cc1ccc(SCCC(=O)OCC(=O)NCC2CCCCC2)cc1,1.15
19,Cc1ccc(C)c(S(=O)(=O)Nc2ccc(O)cc2)c1,4.75
20,Cc1ccccc1CN1[C@@H](C(C)C)COCCS1(=O)=O,-0.457
